Measurements reported in paper PMC5892938.
Some of the results follow. At the low end of the ranking the order means little.

biological target: GST-SBP-SLBP (stem-loop binding protein) (UniProt Q14493); assay: targeted RNA Bind-n-Seq; settings: RBNS binding buffer: 25 mM Tris pH 7.5, 150 mM KCl, 3 mM MgCl2, 0.1% Tween, 0.5 mg/mL BSA, 1 mM DTT; 27 nM protein, 750 pM RNA pool; temperature not stated; high values mean tight binding;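 further: DESeq read counts versus GST-SBP nonspecific binding control pulldown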

Sequence | binding signal (log2 fold change)
GGUCACGUCUCAAUCAACUCCCUAGAGGGGGGGAAAACCCCUUUACCCUCAACAUCAACAGCUCGCAGUCAAG | 0.0354
GGUCACGUCUCAAUCAACUCAUUAGAGGGGGGGAAAACCCCUUUACCCUCCAAUUCAACAGCUCGCAGUCAAG | -0.269
GGUCACGUCUCAAUCAACUCAGUCCCCAGGGAAAGCCCUGGCUAAUUCAACAGCUCGCAGUCAAG | -0.0871
GGUCACGUCUCAAUCAACUCAUCCCCCAGGGAAAUCCCUGGUUAUCUCAACAGCUCGCAGUCAAG | 0.152
GGUCACGUCUCAAUCAACUCUUCUCCCAGGGAAACCCCUGGCUUUCUCAACAGCUCGCAGUCAAG | 0.159
GGUCACGUCUCAAUCAACUCUUCCCCCAGGGAAAGCCCUGGCAUACUCAACAGCUCGCAGUCAAG | 0.118
GGUCACGUCUCAAUCAACUCUUUUUCAGGAGUUUCCUCCUGCUUUCUCAACAGCUCGCAGUCAAG | 0.021
GGUCACGUCUCAAUCAACUCUAUCCCCAGGGAAACCCCUGGUUUUCUCAACAGCUCGCAGUCAAG | -0.179
GGUCACGUCUCAAUCAACUCAAUUUCCAGGGAAAACCCUGGCUAAUUCAACAGCUCGCAGUCAAG | 0.0632
GGUCACGUCUCAAUCAACUCACACGAGGGGGGGAAAACCCCUUUACCCUCUUCAUCAACAGCUCGCAGUCAAG | -0.414
GGUCACGUCUCAAUCAACUCAGUCCCAGGAGUUUCCUCCUGUAUUCUCAACAGCUCGCAGUCAAG | -0.0717
GGUCACGUCUCAAUCAACUCUAAAGAGGGGGGGAAAACCCCUUUGCCCUCGAAUUCAACAGCUCGCAGUCAAG | -0.128
GGUCACGUCUCAAUCAACUCAAUUCCAGGAGUUUACUCCUGCAAACUCAACAGCUCGCAGUCAAG | -0.0164
GGUCACGUCUCAAUCAACUCAAAAGAGGGGGGGAAAACCCCUUUGCCCUCAUAUUCAACAGCUCGCAGUCAAG | -0.306
GGUCACGUCUCAAUCAACUCUAUUCCCAGGGAAAGCCCUGGCAUUUUCAACAGCUCGCAGUCAAG | 0.0411
GGUCACGUCUCAAUCAACUCUUCCUCCAGGGAAAACCCUGGUAUACUCAACAGCUCGCAGUCAAG | 0.192
GGUCACGUCUCAAUCAACUCAUCCUCAGGAGUUUCCUCCUGUAAAUUCAACAGCUCGCAGUCAAG | 0.101
GGUCACGUCUCAAUCAACUCUAUGGAGGGGGGGAAAACCCCUUUACCCUCACUUUCAACAGCUCGCAGUCAAG | -0.0741
GGUCACGUCUCAAUCAACUCAGUCCCAGGAGUUUCCUCCUGCUAUCUCAACAGCUCGCAGUCAAG | 0.0326
GGUCACGUCUCAAUCAACUCUAUCCCAGGAGUUUACUCCUGCAUACUCAACAGCUCGCAGUCAAG | 0.0227
GGUCACGUCUCAAUCAACUCAAAAGAGGGGGGGAAAACCCCUUUACCCUCACCAUCAACAGCUCGCAGUCAAG | 0.563
GGUCACGUCUCAAUCAACUCAUCUUCCAGGGAAAACCCUGGCUAUCUCAACAGCUCGCAGUCAAG | 0.178
GGUCACGUCUCAAUCAACUCAUUUCCCAGGGAAAGCCCUGGUAUAUUCAACAGCUCGCAGUCAAG | 0.0734
GGUCACGUCUCAAUCAACUCUUCUUCCAGGGAAAUCCCUGGUUUAUUCAACAGCUCGCAGUCAAG | -0.157
GGUCACGUCUCAAUCAACUCUAUCUCAGGAGUUUUCUCCUGUAUUUUCAACAGCUCGCAGUCAAG | 0.0293

Sequence | binding signal (log2 fold change)
GGUCACGUCUCAAUCAACUCUACUUCCAGGGAAAUCCCUGGUUUUCUCAACAGCUCGCAGUCAAG | -0.176
GGUCACGUCUCAAUCAACUCCUACGAGGGGGGGAAAACCCCUUUGCCCUCAAAUUCAACAGCUCGCAGUCAAG | -0.403
GGUCACGUCUCAAUCAACUCUUCUCCCAGGGAAAGCCCUGGCUUUCUCAACAGCUCGCAGUCAAG | 0.173
GGUCACGUCUCAAUCAACUCUUUUUCCAGGGAAACCCCUGGUUUUUUCAACAGCUCGCAGUCAAG | 0.0103
GGUCACGUCUCAAUCAACUCUUUCUCCAGGGAAACCCCUGGUAAACUCAACAGCUCGCAGUCAAG | -0.0496
GGUCACGUCUCAAUCAACUCAUUCGAGGGGGGGAAAACCCCUUUACCCUCACCAUCAACAGCUCGCAGUCAAG | 0.148
GGUCACGUCUCAAUCAACUCUACUCCCAGGGAAAUCCCUGGUAAAUUCAACAGCUCGCAGUCAAG | -0.0284
GGUCACGUCUCAAUCAACUCUAGUCCCAGGGAAAUCCCUGGUUAAUUCAACAGCUCGCAGUCAAG | -0.0457
GGUCACGUCUCAAUCAACUCUACUUCCAGGGAAAACCCUGGCGUUUUCAACAGCUCGCAGUCAAG | -0.105
GGUCACGUCUCAAUCAACUCAGUCCCAGGAGUUUCCUCCUGCUUAUUCAACAGCUCGCAGUCAAG | 0.0849
GGUCACGUCUCAAUCAACUCUAUAGAGGGGGGGAAAACCCCUUUGCCCUCAUUCUCAACAGCUCGCAGUCAAG | -0.173
GGUCACGUCUCAAUCAACUCUUUUCCCAGGGAAAACCCUGGCUAAUUCAACAGCUCGCAGUCAAG | -0.00131
GGUCACGUCUCAAUCAACUCUUAAGAGGGGGGGAAAACCCCUUUGCCCUCGAAUUCAACAGCUCGCAGUCAAG | -0.0626
GGUCACGUCUCAAUCAACUCACACGAGGGGGGGAAAACCCCUUUGCCCUCAUCAUCAACAGCUCGCAGUCAAG | -0.0419
GGUCACGUCUCAAUCAACUCAACUUCCAGGGAAACCCCUGGCAUAUUCAACAGCUCGCAGUCAAG | 0.259
GGUCACGUCUCAAUCAACUCAAUUCCCAGGGAAAUCCCUGGUAUUCUCAACAGCUCGCAGUCAAG | -0.109
GGUCACGUCUCAAUCAACUCUUCGCCAGGAGUUUUCUCCUGCAUAUUCAACAGCUCGCAGUCAAG | 0.000575
GGUCACGUCUCAAUCAACUCUACUUCCAGGGAAACCCCUGGUUUUCUCAACAGCUCGCAGUCAAG | -0.122
GGUCACGUCUCAAUCAACUCAUCUUCCAGGGAAAUCCCUGGCGUUUUCAACAGCUCGCAGUCAAG | -0.0822
GGUCACGUCUCAAUCAACUCUAUCUCAGGAGUUUUCUCCUGCUAUCUCAACAGCUCGCAGUCAAG | 0.12
GGUCACGUCUCAAUCAACUCAAUCGAGGGGGGGAAAACCCCUUUACCCUCAUCCUCAACAGCUCGCAGUCAAG | -0.0574
GGUCACGUCUCAAUCAACUCAUUCUCCAGGGAAAUCCCUGGUAUACUCAACAGCUCGCAGUCAAG | -0.0596
GGUCACGUCUCAAUCAACUCUAUGGAGGGGGGGAAAACCCCUUUACCCUCAAUCUCAACAGCUCGCAGUCAAG | 0.0189
GGUCACGUCUCAAUCAACUCAUCUCCCAGGGAAACCCCUGGCUAUUUCAACAGCUCGCAGUCAAG | -0.131
GGUCACGUCUCAAUCAACUCUAAAGAGGGGGGGAAAACCCCUUUACCCUCACUAUCAACAGCUCGCAGUCAAG | -0.214

Sequence | binding signal (log2 fold change)
GGUCACGUCUCAAUCAACUCUAUCUCAGGAGUUUACUCCUGCUUUUUCAACAGCUCGCAGUCAAG | 0.0698
GGUCACGUCUCAAUCAACUCUAUUCCCAGGGAAACCCCUGGUUUACUCAACAGCUCGCAGUCAAG | 0.0996
GGUCACGUCUCAAUCAACUCUUAAGAGGGGGGGAAAACCCCUUUACCCUCAACGUCAACAGCUCGCAGUCAAG | 0.385
GGUCACGUCUCAAUCAACUCUAUCCCAGGAGUUUUCUCCUGCAUACUCAACAGCUCGCAGUCAAG | -0.0205
GGUCACGUCUCAAUCAACUCACACGAGGGGGGGAAAACCCCUUUACCCUCUACCUCAACAGCUCGCAGUCAAG | 0.472
GGUCACGUCUCAAUCAACUCUAAAGAGGGGGGGAAAACCCCUUUGCCCUCAUCAUCAACAGCUCGCAGUCAAG | 0.172
GGUCACGUCUCAAUCAACUCAACGGAGGGGGGGAAAACCCCUUUACCCUCAACAUCAACAGCUCGCAGUCAAG | 0.308
GGUCACGUCUCAAUCAACUCAUCUUCCAGGGAAAGCCCUGGUAUACUCAACAGCUCGCAGUCAAG | 0.00493
GGUCACGUCUCAAUCAACUCUAUUCCAGGAGUUUACUCCUGUUUACUCAACAGCUCGCAGUCAAG | -0.147
GGUCACGUCUCAAUCAACUCUUCUCCAGGAGUUUUCUCCUGCUUACUCAACAGCUCGCAGUCAAG | 0.142
GGUCACGUCUCAAUCAACUCAAUUCCCAGGGAAACCCCUGGCAUACUCAACAGCUCGCAGUCAAG | -0.304
GGUCACGUCUCAAUCAACUCAUCCCCAGGAGUUUCCUCCUGCUUAUUCAACAGCUCGCAGUCAAG | 0.142
GGUCACGUCUCAAUCAACUCAGUCUCCAGGGAAACCCCUGGUUUAUUCAACAGCUCGCAGUCAAG | 0.458
GGUCACGUCUCAAUCAACUCAUCGUCCAGGGAAAUCCCUGGCAAAUUCAACAGCUCGCAGUCAAG | -0.168
GGUCACGUCUCAAUCAACUCAACUCCAGGAGUUUUCUCCUGCAAUCUCAACAGCUCGCAGUCAAG | 0.0107
GGUCACGUCUCAAUCAACUCUUCCUCCAGGGAAACCCCUGGCUUAUUCAACAGCUCGCAGUCAAG | -0.0269
GGUCACGUCUCAAUCAACUCUUCCCCCAGGGAAAACCCUGGUUAUCUCAACAGCUCGCAGUCAAG | -0.0464
GGUCACGUCUCAAUCAACUCUUUUUCCAGGGAAAGCCCUGGUAGUCUCAACAGCUCGCAGUCAAG | -0.207
GGUCACGUCUCAAUCAACUCAAUCCCAGGAGUUUCCUCCUGUUUUUUCAACAGCUCGCAGUCAAG | 0.312
GGUCACGUCUCAAUCAACUCAUCCUCCAGGGAAACCCCUGGCUUUUUCAACAGCUCGCAGUCAAG | -0.0194
GGUCACGUCUCAAUCAACUCUUCUCCAGGAGUUUACUCCUGUAAAUUCAACAGCUCGCAGUCAAG | 0.064
GGUCACGUCUCAAUCAACUCUCCGGAGGGGGGGAAAACCCCUUUACCCUCAUUAUCAACAGCUCGCAGUCAAG | -0.313
GGUCACGUCUCAAUCAACUCAGUUCCAGGAGUUUACUCCUGCAUAUUCAACAGCUCGCAGUCAAG | -0.265
GGUCACGUCUCAAUCAACUCAUAGGAGGGGGGGAAAACCCCUUUACCCUCAUCGUCAACAGCUCGCAGUCAAG | 0.28
